Consider 108 compounds from PubChem BioAssay AID488969 (Vanderbilt High Throughput Screening Facility, 2010).

Molecules are shown by their SMILES. The full ranking holds about 110,000 compounds; the median of “z-score” is about -0.1, and the highest 2% start at about 2. Some of the results follow.

For the assay, the target named is Metabotropic glutamate receptor 8 (Rattus norvegicus) (UniProt P70579). Briefly: rat mGluR8 modulators via GIRK flux, primary screen, cell-based, thallium flux, HTS (AID 488969). The note with it: HEK293 rat mGluR8, GIRK (G protein-gated inwardly rectifying potassium channel) thallium flux, FluoZin2; at 10 µM; stronger effect = higher value; submaximal glutamate (EC20) added with thallium.
Sequence of UniProt P70579 (P70579 whole entry, looked up): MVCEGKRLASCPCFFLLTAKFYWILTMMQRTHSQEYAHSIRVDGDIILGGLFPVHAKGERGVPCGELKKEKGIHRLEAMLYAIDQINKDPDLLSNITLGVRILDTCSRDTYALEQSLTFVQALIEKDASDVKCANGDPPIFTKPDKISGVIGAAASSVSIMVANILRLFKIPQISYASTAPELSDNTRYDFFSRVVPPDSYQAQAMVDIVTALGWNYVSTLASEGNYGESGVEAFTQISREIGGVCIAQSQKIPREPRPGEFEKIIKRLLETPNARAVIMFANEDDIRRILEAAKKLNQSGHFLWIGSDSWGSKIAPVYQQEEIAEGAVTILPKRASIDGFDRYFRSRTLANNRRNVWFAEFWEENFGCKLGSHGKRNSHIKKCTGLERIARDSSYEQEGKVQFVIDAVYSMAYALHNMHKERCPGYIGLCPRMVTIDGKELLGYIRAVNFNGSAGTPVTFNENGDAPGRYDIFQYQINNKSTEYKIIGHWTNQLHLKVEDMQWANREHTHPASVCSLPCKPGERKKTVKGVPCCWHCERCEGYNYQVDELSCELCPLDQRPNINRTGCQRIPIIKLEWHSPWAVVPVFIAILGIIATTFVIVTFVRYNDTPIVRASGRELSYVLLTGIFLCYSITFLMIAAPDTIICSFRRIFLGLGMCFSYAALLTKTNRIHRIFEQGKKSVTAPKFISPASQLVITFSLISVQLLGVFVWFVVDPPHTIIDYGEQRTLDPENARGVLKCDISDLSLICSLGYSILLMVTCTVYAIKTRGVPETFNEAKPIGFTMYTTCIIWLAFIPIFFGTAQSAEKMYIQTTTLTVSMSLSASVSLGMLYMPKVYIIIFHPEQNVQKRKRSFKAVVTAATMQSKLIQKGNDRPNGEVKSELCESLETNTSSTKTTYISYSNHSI
`CCCCCCCCOC(=O)C(NC(=O)CCC(=O)Nc1ccc(S(N)(=O)=O)cc1)C(O)c1ccccc1` (stereo not drawn): the z-score was determined as 0.483.

`CC(=O)Nc1nc(C)c(-c2csc(Nc3cccc([N+](=O)[O-])c3)n2)s1` showed a z-score of -0.196.

The compound `Cc1cc(C)c2cc(CN(CCO)Cc3nnnn3Cc3ccccc3)c(=O)[nH]c2c1` had a z-score of -0.277.

In the case of `CCN(CC)CCNC(=O)c1ccc2c(c1)ncn2C1CCCCC1`, the z-score worked out at 1.66.

For the compound `O=c1/c(=C/c2ccc([N+](=O)[O-])cc2)sc2n1CCCN=2`, the z-score is -0.124.

Regarding `Cc1cccc(N2CCN(C(=O)c3cn(C)c(=O)c4c3c3ccccc3n4C)CC2)c1C`, the z-score was -0.713.

`O=C(NC1CCCCC1)c1cc2nc3c(c(C(F)(F)F)n2n1)CCCC3` gave a z-score of -0.674.

On to `CCC1SC2=NC(C)=C(C(=O)OCCOC)C(/C=C/c3ccccc3OC)N2C1=O` (stereo not drawn), for which the z-score was -0.0374.

On to `CCCCCn1c(=O)[nH]c2cc(C(=O)NCc3ccc4c(c3)OCO4)ccc2c1=O`, for which the z-score was -0.0767.

The compound `CCN(CC)S(=O)(=O)c1ccc(OC)c(NC(=O)c2cc3c(=O)n4ccccc4nc3s2)c1` returned a z-score of -0.178.

Turning to `Cc1ccc(CN2CCN(/N=C/c3ccc(C)s3)CC2)c(C)c1`, the z-score was 0.0505.

`Cc1nc(Nc2cccc(C(F)(F)F)c2)nc2c1C(=O)CC(C)C2` (stereo not drawn) came in with a z-score of 0.272.

Turning to `COC(=O)c1ccccc1NC(=O)CSc1nc(O)cc(=O)n1C1CCCC1`, the z-score was -0.979.

With `COc1cc(/C(C)=N/NC(=S)NC(C)C)cc(OC)c1OC`, the z-score was -0.0595.

Consider `O=C(C1COc2ccccc2O1)N1CCc2ccccc2C1` (stereo not drawn), for which the z-score was -0.0659.

As to `O=C(c1cnccn1)N(c1ccccc1)C1(C(=O)NC2CCCC2)CCCCC1`, the z-score was found to be 0.00523.

Compound `CC(NC(=O)Cn1nnc(-c2ccncc2)n1)c1ccccc1` (stereo not drawn) showed a z-score of 0.226.

As for `O=C(Nc1ccc2c(c1)OCCO2)c1coc2ccccc2c1=O`, the z-score was -0.0224.

Compound `CC(C)=CC(=O)OCC(=O)Nc1ncc(Cl)c(C)c1Cl` came in with a z-score of -0.248.

`CC(C)OC(=O)C(C(=O)C(F)(F)F)c1cc(NS(=O)(=O)c2ccc3ccccc3c2)c2ccccc2c1O` (stereo not drawn) yielded a z-score of -0.227.

In turn, `O=C(Nc1ccncc1)C1c2ccccc2Oc2ccccc21` returned a z-score of -0.193.

Compound `COc1ccc(N2CCN(S(C)(=O)=O)CC2)cc1` came in with a z-score of -0.114.

For `Cn1c(SCc2ccc3c(c2)OCO3)nnc1-c1ccccc1`, the z-score is -0.264.

`C=C(C)CSc1ncc(-c2cccc(C(F)(F)F)c2)cn1` yielded a z-score of 0.0396.

Compound `O=C(c1cc2ccccc2o1)c1nc2c(n1O)CCCCC2` showed a z-score of -0.353.

`CCOC(=O)c1sc2nc(N3CCOCC3)c3c(c2c1N)CCN(C)C3` registered a z-score of 0.36.

On to `COC(=O)C(NC(C)=O)(Nc1ccc(Br)cc1)C(=O)OC`, for which the z-score is -0.459.

`CCOc1ccc(C(=O)C(CCC(CN(C)C)C(=O)c2ccc(OCC)cc2)CN(C)C)cc1` (stereo not drawn) had a z-score of 0.337.

`COc1cccc(C(=O)Oc2cc3c4c(c2)C(C)=CC(C)(C)N4C(=O)C3=O)c1` showed a z-score of -0.249.

`CSc1ccccc1NC(=O)COc1ccc(Cl)cc1Cl` yielded a z-score of -0.15.

As to `O=c1[nH]nc2n1CCCCC2`, the z-score is 0.186.

On to `CCc1ccc(NC(=S)N(CCCN2CCOCC2)Cc2ccccn2)cc1`, for which the z-score is -0.551.

The compound `COc1ccc(N(CC(=O)Nc2cccc(OC)c2)S(=O)(=O)c2c(C)nn(C)c2C)cc1` returned a z-score of -0.166.

`Cc1ccc(-c2ccc(/C=C3/NC(=O)NC3=O)o2)cc1[N+](=O)[O-]` returned a z-score of -0.124.

For `COc1ccc(CNC(=O)C2CCCN(S(=O)(=O)c3cc(C)ccc3OC)C2)cc1` (stereo not drawn), the z-score is -0.539.

On to `CN(C)c1ccc(C=Nc2cnn(C)c2C(N)=O)cc1`, for which the z-score is -0.379.

On to `COC(=O)c1ccc2nc(C)c(C)nc2c1`, for which the z-score amounted to 0.386.

`Cc1cccc(C)c1N/C=C/c1onc(C)c1[N+](=O)[O-]`: the z-score was 0.293.

In turn, `CCOC(=O)/C(C#N)=C/c1ccc(N2CCN(C)CC2)cc1` showed a z-score of -0.0903.

Take `COc1ccccc1CNC(=O)CCSCc1cccc(Cl)c1`: the z-score was determined as 0.0412.

For `Cc1sc2nc(CN3CCN(S(=O)(=O)c4cccc5nonc45)CC3)[nH]c(=O)c2c1C`, the z-score was -0.227.

Turning to `CCOC(=O)C(C)Sc1nnc(CNC(=O)c2ccc(OC)cc2)n1C1CCCCC1` (stereo not drawn), the z-score is -0.0386.

As for `N#Cc1cc(-c2ccccc2)nc(Oc2ccccc2)n1`, the z-score worked out at 0.0354.

As for `CC(SC1=NCCS1)C(=O)Nc1nnc(-c2ccc(F)cc2)s1` (stereo not drawn), the z-score is 0.0182.

`Cc1ccc(NS(=O)(=O)c2ccc(NC(=O)C(C)Sc3ccc(Cl)cc3)cc2)c(C)c1` (stereo not drawn) returned a z-score of -0.237.

Turning to `CCN(CC)C(=O)c1ccccc1NS(=O)(=O)c1ccc(C)cc1`, the z-score is 0.37.

As for `NS(=O)(=O)c1ccc(CCNC(=O)CN2CCN(c3ccc(F)cc3)CC2)cc1`, the z-score came out at 0.868.

`CC1(O)c2ccccc2C(=O)N1Cc1ccccc1` (stereo not drawn) registered a z-score of 1.3.

`CCCc1cc2c(cc1NC(=O)c1ccccc1C)OCO2` showed a z-score of 0.251.

Compound `CCCCN(C)/C=N/c1c(C#N)cnn1-c1ccc(C)cc1` yielded a z-score of -0.927.

Consider `Cc1cc(-c2cccs2)c2c(N)c(C(=O)c3ccc4c(c3)OCO4)sc2n1`, for which the z-score is -1.22.

In turn, `CCc1nccn1-c1cc(C(C)(C)C)nc2c(-c3ccc(Cl)cc3)cnn12` registered a z-score of -0.156.

Take `N/C(=N\OC(=O)c1cc(Cl)ccc1Cl)c1cccnc1`: the z-score was 0.145.

In turn, `Cc1cc(C)c(C)c(Oc2ncnc(N)c2[N+](=O)[O-])c1` came in with a z-score of -0.0259.

Compound `O=C1c2ccccc2C(Nc2ccc(Cl)cn2)N1c1cccnc1` (stereo not drawn) showed a z-score of -1.86.

`c1nc(NCC2(N3CCOCC3)CCCCC2)c2ccsc2n1` had a z-score of 0.165.

In the case of `O=[N+]([O-])c1nn(-c2ccc3c(c2)OCCO3)n(O)c1=NC1CCCCCC1`, the z-score is -0.0616.

On to `O=C(NNC(=S)Nc1ccccc1)c1ccncc1`, for which the z-score was 0.161.

The compound `COc1ccc(N2CC(C(=O)Nc3ncccc3C)CC2=O)cc1` (stereo not drawn) displayed a z-score of -0.0202.

`CC(=O)NC1C(c2nc3ccccc3s2)=C(c2ccccc2)C(=O)N1c1ccc(C)cc1` (stereo not drawn) came in with a z-score of -0.125.

With `N/C(COc1cccc(C(F)(F)F)c1)=N\NC(=O)c1cccnc1Oc1ccccc1`, the z-score is -0.285.

In the case of `Clc1ccc(OCCn2cnc3ccccc32)c(Cl)c1`, the z-score stood at 0.126.

The compound `Cc1ccc(NS(=O)(=O)c2cccc(C(=O)NCCc3c[nH]c4ccccc34)c2)c(C)c1` showed a z-score of -0.245.

With `CCCSc1nnc(CN2CCOCC2)n1C`, the z-score was -0.124.

Regarding `O=C(CSc1ccccc1)Nc1ccncc1`, the z-score is -0.309.

As for `CN(C)C(=O)Cn1c(SCC(=O)NCc2ccc3c(c2)OCO3)nc2ccccc21`, the z-score is -0.00238.

The compound `CCOC(=O)N1CCN(C(=O)COc2ccc(S(=O)(=O)NCC(C)C)cc2C)CC1` showed a z-score of 0.159.

Regarding `COc1ccccc1OCCNC1CCCC1`, the z-score was 0.263.

In turn, `Cn1c2ccccc2c2c(C(=O)O)cn(C3CCCC3)c(=O)c21` had a z-score of -0.532.

Compound `CCOc1ccc(N(CC)C(=O)CCNC(=O)Cn2ccc3ccccc3c2=O)cc1` showed a z-score of -1.4.

Compound `Cc1nnc(SC(C)C(=O)Nc2ncc(Cl)cc2Cl)n1Cc1ccccc1` (stereo not drawn) registered a z-score of -0.249.

`O=C(NCC(=O)N(Cc1ccco1)C(C(=O)NC1CCCC1)c1cccnc1)c1ccco1` (stereo not drawn) registered a z-score of 2.19.

The compound `Cc1ccccc1OCC(=O)Nc1sc(C(=O)Nc2cccc(C)c2C)c(C)c1C#N` displayed a z-score of -0.341.

Regarding `COc1cc(C(=O)OCC(=O)NC2CCCC2)cc(NC(=O)c2ccco2)c1OC`, the z-score is -0.735.

Compound `O=C(COC(=O)c1ccco1)Nc1nc2ccccc2s1` came in with a z-score of 0.111.

`Cc1cccc(NC(=O)/C=C/c2ccc([N+](=O)[O-])s2)c1` yielded a z-score of 0.281.

`Cn1cccc1C(C(=O)NC1CCCCC1)N(C(=O)Cc1cccs1)c1ccc2c(c1)OCO2` (stereo not drawn): the z-score was -0.182.

For `Cc1ccc(C(=O)NCC(=O)Nc2cccc(C(F)(F)F)c2)cc1`, the z-score is -0.208.

Consider `CC(Oc1ccc(Cl)cc1Cl)C(=O)Nc1ccc(S(=O)(=O)Nc2cnc3ccccc3n2)cc1` (stereo not drawn), for which the z-score is -0.944.

Take `COC(=O)c1sccc1NC(=S)Nc1ccc(F)cc1`: the z-score was -0.00972.

Turning to `Cc1ccc(NC(=O)c2ccc(OC(F)(F)F)cc2)cc1S(=O)(=O)N(C)C`, the z-score was -0.154.

The compound `COc1cc(CNCC(O)c2ccccc2)ccc1OCc1ccc(Cl)nc1` (stereo not drawn) yielded a z-score of 1.26.

In turn, `CCOc1cc2[nH]c(=O)n(CC3CCC(C(=O)NCCCOC)CC3)c(=O)c2cc1OCC` (stereo not drawn) had a z-score of -0.875.

The compound `O=C(COC(=O)c1ccccc1Nc1ccc(SC(F)F)cc1)NCc1ccco1` yielded a z-score of -0.0503.

`O=S1(=O)C=C(SCc2ccccc2)Nc2ccccc21` had a z-score of -0.11.

In the case of `N#Cc1ccccc1Sc1ccccc1C(=O)Nc1ccccc1`, the z-score was 0.16.

The compound `O=C(/C=C/c1ccccc1)c1ccc2c3c(cccc13)CC2` displayed a z-score of 0.0557.

The compound `CCCc1ccc(-c2cc(C(=O)NN3CCOCC3)c3ccccc3n2)cc1` showed a z-score of -0.0753.

In turn, `O=C(Nc1sc2c(c1-c1nc3ccccc3[nH]1)CCCC2)C1CCCC1` returned a z-score of 0.0189.

For the compound `CCOC(=O)c1ccc(NS(=O)(=O)c2c(C)n(C)c(=O)n(C)c2=O)cc1`, the z-score was -0.176.

In the case of `COc1ccccc1-n1c2nc3ccccc3nc2c2c(=O)n(-c3cc(C)cc(C)c3)cnc21`, the z-score amounted to 0.323.

For the compound `Cc1ccc(C(=O)N/C(=C\c2ccccc2)C(=O)NCC2CCCO2)cc1` (stereo not drawn), the z-score worked out at 0.0577.

Regarding `Cc1ccccc1CS(=O)(=O)Cc1ccc(C(=O)NCc2cccnc2)o1`, the z-score is -0.679.

`COc1ccc(-c2cnnn2-c2ccc(NC(=O)c3ccc(S(=O)(=O)N4CCCCC4)cc3)cc2)cc1OC` registered a z-score of -0.942.

For the compound `COC(=O)CSc1nc(NC(C)=O)nc(C)c1Br`, the z-score is -0.199.

Turning to `COc1cc(C(=O)O)cc(NC(=O)c2cccs2)c1OC`, the z-score was -0.536.

Turning to `O=C(NCCN1CCOCC1)C1CCC(CNS(=O)(=O)c2ccc(Cl)cc2)CC1` (stereo not drawn), the z-score was -0.0938.

Regarding `CCN1CNC(=S)N(c2cccc(C)c2C)C1`, the z-score is -1.75.

Regarding `CN1C2C=C(N(CCc3c[nH]c4ccccc34)C(=O)c3ccc(Cl)cc3)CC1CC2` (stereo not drawn), the z-score is 0.11.

On to `N#Cc1ccc(N2CCc3ccccc3C2)c([N+](=O)[O-])c1`, for which the z-score came to 0.175.

As for `Cc1cccc(NCc2nc(-c3ccccc3)no2)c1`, the z-score was -0.266.

Compound `CC(=O)Nc1ccc(NC(=O)C(C)OC(=O)CN(C)S(=O)(=O)c2ccc(Cl)cc2)cc1` (stereo not drawn) yielded a z-score of -0.0798.

Compound `COc1ccccc1N(CC(=O)Nc1cc(C)on1)S(=O)(=O)c1ccc(Cl)cc1` showed a z-score of 0.0709.

In turn, `Cc1cccc(C)c1NC(=O)COC(=O)CSc1nnc(N)s1` gave a z-score of 0.178.

Regarding `CCOc1cc(/C=N/O)ccc1OCc1ccc(F)cc1`, the z-score was found to be 0.601.

`C/C(=C\C(=O)c1ccc(F)cc1)NCc1ccc2c(c1)OCO2` showed a z-score of -0.459.

For `O=C(CCC(=O)OCC(=O)c1ccccc1)NC1CCCCC1`, the z-score is -0.0167.

Compound `O=C(NCCCN1CCCC1=O)c1ccc2c(c1)OCO2` showed a z-score of 0.0161.
